Measurements from the supplement of paper PMC5499739.
Over roughly 16,000 sequences, “Z-score” has its median near -0.37; the highest 2% begin near 3.2. The list shows a part of the results.

These sequences were tested on RBM10 RRM1-ZnF (GST-tagged construct) (assay: RNAcompete 7-mer binding Z-score; higher = stronger binding preference).
Summary of the method: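 A designed pool of 241 399 RNAs, each up to 41 nt and transcribed from microarray-derived DNA templates, was used at 1.5 nmol with 20 pmol of GST-tagged RBM10 constructs. The mixture, in 1 ml Hepes pH 7.8 buffer with KCl, NaCl, glycerol, DTT, BSA and glutathione Sepharose beads, was held 30 min at 4°C and then washed four times for 2 min at 4°C. Bound RNA was read out by microarray hybridisation, and enrichment of each heptamer motif was scored as a one-sided Z-score over the probes carrying it.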

Sequence	RNAcompete 7-mer binding Z-score
AUUUCUC	-0.818
GACGGUG	1.83
GCGGCCG	0.095
GCCGGUG	0.261
CGCCCUU	-0.623
UUCGAGU	-0.581
GAUGGAG	3.52
CUCUCUA	-0.746
ACCUUGC	-0.896
GUGGUAG	2.2
UAUAGAG	0.205
UUAUAUA	-0.418
UCCGGGA	0.358
CAGGGUC	1.09
AAGAACC	-0.526
GUUCGCU	-0.532
GUUGCCU	-0.279
CUAAGGA	0.365
GGCUCAU	-0.318
GUCGGUA	0.781
CGGUCUU	-0.607
AUCUCUU	-0.88
UGACAAG	0.222

Sequence	RNAcompete 7-mer binding Z-score
UGCGGCC	-0.292
CUGCGGU	0.134
UGGCCCU	-0.217
GGCACUU	-0.347
UCCGUCU	-0.802
CUACGGG	1.18
UUAUAGU	-0.392
AACGUUC	-0.617
GGUGAAC	1.94
GGAGACA	1.95
AGGGAUU	2.3
GUAGAUU	0.332
GAGCGGG	3.61
CGCCGAU	-0.665
UGUAUUG	-0.168
CCUGAGU	-0.607
AACAGCU	-0.574
UCCAAAG	-0.633
CUGCAAA	-0.552
AGAAGAC	0.0853
AAGAAUU	-0.217
AGCUAAC	-0.298
UUAUGAG	-0.184

Sequence	RNAcompete 7-mer binding Z-score
ACCUGCU	-0.902
ACCUCCU	-0.834
AAGUCAG	-0.103
UAGGUCG	0.774
CCAAUAC	-0.818
AUGGCCG	-0.022
CAUGACC	-0.792
CGUAGGA	1.02
AGUAGCC	-0.314
GCGAGCC	0.153
AAAAGGA	3.01
UUAAGCU	-0.707
UUCCGUG	-0.503
GCUGACC	-0.425
UCGCGAG	-0.158
UAGGACG	1.62
CCUACGA	-0.535
GGAACGC	0.927
CCCCUAA	-0.535
CUCCACC	-0.519
GCACUGC	-0.207
ACAGCCG	-0.597
UGGCGGC	0.959

Sequence	RNAcompete 7-mer binding Z-score
AGUGAUA	0.511
GGAGUGC	2.04
AGGGGUA	3.69
CUGAUGA	-0.295
UCUGGCA	-0.707
UGUUGUA	-0.0512
AAAUUAG	-0.106
GCGCUGC	-0.0772
UCUAUUC	-0.737
GUGGUUU	1.68
CUGGGAG	1.66
UGGCUGA	0.449
GCUUGCG	-0.327
ACCCAUC	-0.896
GCUGCCG	-0.171
AGAACCC	-0.889
GACCCCC	-0.386
UGAACCG	-0.422
UUCUGUA	-0.652
CACACCA	-0.558
GUCCGGC	-0.659
GCCUGGC	-0.305
CACCCGA	-0.48

Sequence	RNAcompete 7-mer binding Z-score
CCUCACU	-0.649
UUCCAGA	-0.675
CGUUCCC	-0.704
UGGUCAA	0.248
GGGUUAA	3.01
GCUCUCG	-0.285
GGGAAAA	3.4
UACCUGU	-0.964
CCCCAGG	-0.116
CUUCGAA	-0.88
UGUAUUU	-0.724
AAAUCCU	-0.795
AGCCGGU	-0.259
UGAGAGA	0.917
AAUUACG	-0.373
AAUCGGA	0.537
CAGAUAG	-0.0642
UCCUAAA	-0.75
UAUGGCA	0.413
CGCGCAA	-0.597
GUUUCAU	-0.574
UCAUGCU	-0.597
CAGCAUC	-0.756

Sequence	RNAcompete 7-mer binding Z-score
GAGGUGU	2.37
CGCAUAA	-0.47
GUUGCCC	-0.259
ACUAGAC	-0.483
UAUUUCG	-0.798
AAAGACG	0.628
AUUUAAU	-0.672
CUCGGUU	-0.363
UUUGUCA	-0.626
UAACGGA	0.836
ACGGUCG	-0.0252
GUCGACG	0.0658
UUACUCG	-0.6
CCUGGCC	-0.555
UUCUAGA	-0.714
AAAGCUG	-0.136
UAGGGGA	3.71
GCCCCCA	-0.314
AGUUUGG	1.35
UCGCCUC	-0.694
UAUGUGG	1.19
AACAGUA	-0.0999
AAGUCUA	-0.506

Sequence	RNAcompete 7-mer binding Z-score
GGCUCAC	-0.142
CGUUUAG	-0.636
UUUACAA	-0.626
GUUACAA	0.452
CAAACCC	-0.831
GGCGUUC	0.0333
CUAAAUG	-0.223
UAUACGU	-0.357
AAACGUC	-0.688
GUGCCUC	-0.415
CCAUAAG	-0.701
AAAAUGU	-0.233
GCUGCGU	-0.399
GGGCAUU	1.04
AUGUAGG	2.28
UCUUUUU	-0.789
UGUGGUC	0.319
CUGUCCU	-0.746
CGUGCAG	-0.11
AUGAGUG	1.18
CUGCGGA	0.199
UUCAAGA	-0.448
UUCUUCC	-0.756

Sequence	RNAcompete 7-mer binding Z-score
GGGGUCU	1.38
AGGAACU	-0.0155
GUCGCGU	-0.0967
UUCAGGA	0.0593
AAUCCAA	-0.766
CCGUUUU	-0.967
AAGGCGG	2.44
ACAGAGG	1.59
UGGCGCG	0.833
UUACAUC	-0.795
AGGAGGU	2.47
UGUAACA	-0.0479
UGAGGUU	2.02
UCGGUAC	-0.0122
AGAUGCG	0.111
UAGAAAA	0.082
AGCGCAC	-0.279
CACUAAA	-0.493
UCCUGCG	-0.503
AGAUAAU	-0.204
GGAUCGG	2.14
UCUGUAC	-0.717
UGUUCUC	-0.746
